Measured values reported in the antibiotic and cytotoxicity screens of Wong et al. (2023).
This is one part of the list.

Experiments:
HSkMC = human skeletal muscle cells; test: cytotoxicity call (relative viability < 0.9); conditions: 10 µM
S. aureus RN4220 = test: growth inhibition call (relative growth <= 0.2); conditions: 50 µM

SMILES | cytotoxicity call (HSkMC) | growth inhibition call (S. aureus RN4220)
C[C@@H]1CCCCO[C@@H](CN(C)S(=O)(=O)c2ccccc2)[C@@H](C)CN([C@@H](C)CO)C(=O)c2cc(NC(=O)Nc3ccc(F)cc3)ccc2O1 | inactive | inactive
C[Si](C)(C)O[Si](C)(C)O[Si](C)(C)C | inactive | inactive
CCCNC(=O)N1C[C@@H](O)COC[C@H]2O[C@H](CC(=O)N3CCN(C)CC3)CC[C@@H]21 | inactive | inactive
O=C(C[C@@H]1C=C[C@H](NS(=O)(=O)c2ccc(F)cc2)[C@@H](CO)O1)N1CCC(Cc2ccccc2)CC1 | inactive | inactive
COc1ccc(NC(=O)Nc2cccc3c2O[C@H](CN(C)C(=O)Nc2ccc(C(F)(F)F)cc2)[C@@H](C)CN([C@@H](C)CO)C3=O)cc1 | inactive | inactive
COc1ccc2c3c(n(c2c1)C)[C@H](CO)N(C[C@]13CCN(CC1)C(=O)C1CCOCC1)C(=O)C1CCOCC1 | inactive | inactive
CC(C)NC(=O)N(C)C[C@@H]1OCCCC[C@@H](C)Oc2ccc(NC(=O)Nc3ccccc3)cc2C(=O)N([C@@H](C)CO)C[C@H]1C | inactive | inactive
C[C@@H]1CN([C@@H](C)CO)C(=O)c2cc(NS(=O)(=O)c3cn(C)cn3)ccc2O[C@@H]1CN(C)C(=O)Nc1ccccc1 | inactive | inactive
COc1ccc(NC(=O)Nc2ccc3c(c2)C(=O)N([C@@H](C)CO)C[C@@H](C)[C@@H](CN(C)S(=O)(=O)c2ccc(F)cc2)OCCCC[C@H](C)O3)cc1 | inactive | inactive
Cc1ccc(S(=O)(=O)Nc2cccc3c2O[C@@H](CN(C)C(=O)Nc2cccc4ccccc24)[C@H](C)CN([C@@H](C)CO)C3=O)cc1 | inactive | inactive
CCCCN(CCCC)CC[C@@H](O)c1cc2c(Cl)cc(Cl)cc2c2cc(C(F)(F)F)ccc12 | inactive | inactive
CC1(C)CCC2=C(O1)C(=O)c1ccccc1C2=O [alpha-LAPACHONE ] | inactive | 
C[C@@H]1CCCCO[C@@H](CN(C)S(C)(=O)=O)[C@@H](C)CN([C@H](C)CO)C(=O)c2cc(NS(C)(=O)=O)ccc2O1 | inactive | inactive
c1ccc2c(CSc3nc4ccccc4o3)cccc2c1 | inactive | inactive
Fc1cccc(-c2csc(COc3ccccc3Cl)n2)c1 | inactive | inactive
NCCCCCc1nnc(SCC(N)=O)o1 | inactive | inactive
C[C@H](CO)N1C[C@H](C)[C@H](CN(C)Cc2ccc(-c3ccccc3)cc2)Oc2c(NC(=O)c3ccncc3)cccc2C1=O | inactive | inactive
CC(=O)O[C@@]1(C)C[C@@H](O)[C@@H]2C=CO[C@@H](O[C@@H]3O[C@H](CO)[C@@H](O)[C@H](O)[C@H]3O)[C@@H]21 | inactive | inactive
C[C@@H]1CN([C@H](C)CO)C(=O)c2cccc(NC(=O)C3CCCCC3)c2O[C@@H]1CN(C)S(=O)(=O)c1cn(C)cn1 | inactive | inactive
C=CCC[C@H](Cc1ccc(F)cc1)C(=O)OC[C@@H](NC(=O)[C@@H](CC=C)CC(=O)N[C@H](CO)Cc1ccccc1)C(C)(C)C | inactive | inactive
C[C@@H]1CN([C@H](C)CO)C(=O)c2cc(NC(=O)C3CCCCC3)ccc2O[C@@H](C)CCCCO[C@@H]1CN(C)Cc1ccc(C(=O)O)cc1 | inactive | inactive
COC(=O)c1c2oc(c1C(=O)OC)C(=O)N(C)Cc1cn(nn1)C[C@@H](Cc1ccccc1)NC(=O)N[C@H](COC(=O)NCCCCCC(=O)NO)CC2 | inactive | inactive
O=C(C[C@@H]1CC[C@H]2[C@@H](COC[C@H](O)CN2C(=O)c2ccc3c(c2)OCO3)O1)NCCN1CCCCC1 | inactive | inactive
O=C1O[C@@H](c2ccccc2)[C@@H](c2ccccc2)N2[C@@H](c3ccc(OCCO)cc3)[C@]3(C(=O)Nc4ccc(C#CC5(O)CCCCCC5)cc43)[C@@H](C(=O)NC[C@H](O)c3ccccc3)[C@H]12 | inactive | inactive
O=C(C[C@H]1C=C[C@H](NC(=O)C2CC2)[C@@H](CO)O1)NCCCN1CCOCC1 | inactive | inactive
CC(C)NC(=O)N(C)C[C@H]1Oc2ccc(NC(=O)C3CCCCC3)cc2CC(=O)N([C@H](C)CO)C[C@H]1C | inactive | inactive
COc1ccc2c3c([nH]c2c1)[C@@H](CO)N(C[C@]13CCN(CC1)C(=O)CN(C)C)S(=O)(=O)C | inactive | inactive
Cc1cc(O)c(C(=O)NC(C(=O)NC2C(=O)N3C(C(=O)O)=C(CSc4nnnn4C)CSC23)c2ccc(O)cc2)cn1 (stereo not given) | inactive | active
